Laboratory results as given in the supplement of paper PMC3334620.
Over roughly 33,000 sequences, “E-score (-0.5 to 0.5)” has its median near -0.012; the highest 2% begin near 0.29. This is one part of the list.

target: T1, Ybr033w (UniProt P38073); assay: PBM E-score (8-mer binding enrichment) (E-score (-0.5 to 0.5)); higher = stronger / more preferred TF binding; most listed sequences are background and not binding sites; settings: protein concentration: 200 nM; construct: GST-full length
T1 sequence: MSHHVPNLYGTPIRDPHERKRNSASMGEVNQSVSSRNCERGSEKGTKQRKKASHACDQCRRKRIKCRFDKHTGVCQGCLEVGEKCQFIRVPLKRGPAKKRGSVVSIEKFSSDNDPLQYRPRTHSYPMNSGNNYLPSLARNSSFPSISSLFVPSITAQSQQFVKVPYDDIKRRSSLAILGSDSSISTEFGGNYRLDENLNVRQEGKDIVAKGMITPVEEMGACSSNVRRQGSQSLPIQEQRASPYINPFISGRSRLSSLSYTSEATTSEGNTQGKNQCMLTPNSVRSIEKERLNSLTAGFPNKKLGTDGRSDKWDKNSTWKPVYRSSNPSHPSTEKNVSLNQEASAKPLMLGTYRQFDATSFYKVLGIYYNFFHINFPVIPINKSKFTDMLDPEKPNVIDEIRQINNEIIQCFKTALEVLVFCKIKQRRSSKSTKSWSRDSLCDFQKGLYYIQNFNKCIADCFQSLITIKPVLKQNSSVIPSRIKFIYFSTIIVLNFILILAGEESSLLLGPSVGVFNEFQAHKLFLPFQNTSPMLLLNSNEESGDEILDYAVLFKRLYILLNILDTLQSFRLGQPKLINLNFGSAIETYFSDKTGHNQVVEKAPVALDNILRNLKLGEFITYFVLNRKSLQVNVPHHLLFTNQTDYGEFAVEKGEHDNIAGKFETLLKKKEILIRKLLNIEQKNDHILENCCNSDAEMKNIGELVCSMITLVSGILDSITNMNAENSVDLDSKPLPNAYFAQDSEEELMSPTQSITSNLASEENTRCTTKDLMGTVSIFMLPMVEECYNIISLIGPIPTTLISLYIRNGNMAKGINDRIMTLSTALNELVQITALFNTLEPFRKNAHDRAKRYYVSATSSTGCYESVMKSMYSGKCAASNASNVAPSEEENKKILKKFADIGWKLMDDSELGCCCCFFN
Summary of the method: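 Yeast transcription factors, full-length or as DNA-binding domains, were expressed with a GST tag using PURExpress in vitro transcription/translation. At about 100-200 nM they were applied to universal all-10-mer Agilent arrays, double-stranded by primer extension on fresh or once-stripped slides. Fluorescent anti-GST detected bound protein, and masliner normalised the scans. E-scores for ungapped eight-base words, pooled with reverse complements, came from the Universal PBM Analysis Suite.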

| Sequence | PBM E-score |
| --- | --- |
| GCGTGACA | 0.0643 |
| GAAATGCA | 0.141 |
| GCGCTGCC | -0.318 |
| CAATCGAG | -0.132 |
| CCGAATTC | 0.089 |
| GACATGAC | -0.22 |
| GGTAATTA | 0.175 |
| CGACGGCA | -0.247 |
| ATCACGGG | -0.215 |
| AAGCTCTA | -0.139 |
| CGCTGGAA | -0.0114 |
| GGAAGTAA | 0.211 |
| AGTTTTTG | 0.254 |
| GATTTACA | 0.297 |
| GCACCGAC | -0.0638 |
| GAAGCTGA | 0.135 |
| CACTACGA | 0.00415 |
| GGATTAGA | 0.0514 |
| AGATAACG | 0.215 |
| GGCAGGAC | -0.204 |
| GAACGACA | 0.0254 |
| GCCTCCCA | -0.213 |
| ACGTTGCT | 0.159 |
| CACTGTAC | -0.141 |
| CATAATGC | 0.0431 |

| Sequence | PBM E-score |
| --- | --- |
| CTAAACAG | -0.0126 |
| CCCCGACG | -0.319 |
| CGGTGACA | -0.00129 |
| AACATGTG | 0.246 |
| CATAGCAC | 0.0654 |
| AACCCGCG | 0.0347 |
| CTAAAGAG | -0.0452 |
| CTAGACGC | -0.0917 |
| CGTTACCA | 0.0589 |
| CTTATTTC | 0.235 |
| ATTACTTA | 0.35 |
| CCGTACCA | 0.145 |
| GTCATAAC | -0.0815 |
| AGGCCAGA | -0.0584 |
| CCGGTTTA | -0.0643 |
| CCACCGGG | -0.217 |
| CATTTAAA | 0.21 |
| GAATCATA | 0.147 |
| AAAAGTGC | 0.13 |
| CATCACTA | 0.197 |
| GACCTGGC | -0.105 |
| GGGATAGA | -0.196 |
| GATGTGCC | -0.123 |
| AACATGGA | 0.0231 |
| AAGAAGAC | -0.0526 |

| Sequence | PBM E-score |
| --- | --- |
| GGACCGAC | -0.0748 |
| CACAGTGG | 0.0184 |
| CCCGATCA | -0.25 |
| AACCCACA | 0.103 |
| CAGAATTC | 0.232 |
| AGATAGCC | -0.342 |
| CCCGACGC | -0.31 |
| ATCTTCTG | 0.125 |
| CGCAGACC | -0.103 |
| CGGCCCTC | -0.308 |
| GGGATCAC | -0.311 |
| AGTAACGG | 0.066 |
| AGGAGTAT | -0.00254 |
| CCGATAGC | -0.298 |
| CATCCATA | 0.0376 |
| GGGTGTGA | -0.114 |
| CCTCCGCA | -0.201 |
| GCATTGAC | -0.0197 |
| ACAATCGG | 0.0552 |
| CACAGGAA | 0.15 |
| TACCCATA | -0.0142 |
| GCTAGCAC | -0.0925 |
| ATGCTGGA | -0.0385 |
| AGACAAAA | 0.0463 |
| GCTCCTCC | -0.34 |

| Sequence | PBM E-score |
| --- | --- |
| CACCGCAA | 0.202 |
| AAGTGACA | 0.24 |
| GCAGCGGA | -0.0654 |
| GCACTCGC | 0.0865 |
| ACTTAGCA | 0.00122 |
| CCACCTCA | -0.134 |
| AATCTCAA | 0.0508 |
| AACACGAC | 0.00288 |
| GGTGTTAC | -0.123 |
| GAGCTTCC | 0.0838 |
| AAAATAGC | -0.0427 |
| ACTTTTTC | 0.194 |
| CAGCCTCA | -0.24 |
| CGATCGCG | -0.0697 |
| CGTGTTGC | -0.027 |
| AGTAACTG | 0.0214 |
| AGCAAACT | 0.179 |
| ACGGACAA | 0.103 |
| CAAGGGGC | -0.182 |
| ACACAATG | 0.238 |
| TAATGACA | 0.122 |
| ACATCCGA | -0.00058 |
| AAGACGCG | 0.0343 |
| CGGTTCTC | -0.126 |
| CCGCTACG | -0.168 |

| Sequence | PBM E-score |
| --- | --- |
| ACCTGTTG | 0.13 |
| GAGGCACC | -0.342 |
| ATATTCAC | 0.133 |
| GGCGTACA | -0.0865 |
| ACGACTTC | -0.0544 |
| CCACGTCC | -0.223 |
| CACTTATC | 0.178 |
| CAATTTAA | 0.27 |
| ACTGGTAG | 0.018 |
| CTGGGCAA | 0.0529 |
| CACACATC | -0.165 |
| TTCAAAAA | 0.239 |
| TAAGCTTA | 0.102 |
| CAAGCAAA | -0.0607 |
| CCATCTGA | 0.0862 |
| TGGAGACA | -0.0605 |
| GTCGGACA | -0.062 |
| TCAGTTAA | 0.107 |
| ACTGCATG | 0.015 |
| AATAGCCT | 0.00241 |
| ACAGCATG | -0.0886 |
| AGGATATA | 0.245 |
| GCTTTAGA | -0.0625 |
| CCAGTGTA | -0.0467 |
| GCTTTCTA | 0.14 |

| Sequence | PBM E-score |
| --- | --- |
| AACTAATT | 0.293 |
| CGTCGTTA | -0.0128 |
| CACACAAG | 0.0777 |
| GGCGACCA | -0.375 |
| GTAGAACA | -0.199 |
| GGCTGTTA | 0.0184 |
| AAAACTGG | 0.0511 |
| ACCTCGCC | -0.261 |
| CGAAGCAC | -0.102 |
| TATACATA | 0.176 |
| ACAGCACT | 0.0697 |
| CGGGACAC | -0.265 |
| CAATGTTA | 0.121 |
| GATAACAC | 0.089 |
| CAAGAATG | 0.135 |
| ACATACAC | 0.172 |
| AGGTATCC | -0.0773 |
| ATGGTGAC | -0.0449 |
| AGGGACTA | -0.029 |
| AATTCCCG | 0.0788 |
| AATGATGG | 0.12 |
| CAGAACTC | -0.0208 |
| CGATAGGC | -0.119 |
| CTTCATCA | 0.0846 |
| GCTGACGA | -0.14 |

| Sequence | PBM E-score |
| --- | --- |
| CCCGGAGA | 0.0405 |
| CGTGAAAA | 0.231 |
| GTGCTGCA | 0.0439 |
| GGAGGAAA | 0.145 |
| GCGTGCGA | -0.0546 |
| ATCAGGGC | -0.147 |
| GCGACGCC | -0.191 |
| CGGGTGAC | -0.214 |
| AACTTCCT | 0.0972 |
| CAGTAGAA | -2e-05 |
| CTATTCTA | 0.129 |
| AGAATATG | 0.229 |
| GCCGTCAC | -0.0864 |
| CACAAGGA | -0.0221 |
| GTTCGAGA | -0.0752 |
| ATAAAGCC | -0.0108 |
| AATTGCGG | 0.00918 |
| ACTGGGGG | -0.31 |
| AACGCCGC | -0.168 |
| CCCTATAG | -0.0738 |
| GTAGTAAC | -0.0627 |
| GATCCAAC | 0.0935 |
| CGTTTACC | -0.0614 |
| CTGAGCAG | -0.111 |
| CTTACAAC | 0.127 |

| Sequence | PBM E-score |
| --- | --- |
| AGTGCAAG | 0.184 |
| AGCGAGTC | -0.0597 |
| ATGGCCTC | -0.142 |
| AACCGAGC | -0.0626 |
| ACAACGCC | -0.0433 |
| TCAATAGA | 0.172 |
| CGGCCGAG | -0.138 |
| CCCCAAGC | -0.0908 |
| GAGAATGC | -0.0204 |
| CCTAGGGA | -0.0964 |
| CACAATTC | 0.16 |
| GAGCGCCC | -0.245 |
| TACATAAA | 0.259 |
| AATACCCG | 0.0839 |
| ATCTTCGA | 0.0476 |
| CTGGCAAA | 0.0898 |
| GTGCGATA | 0.0892 |
| GAGTGTGC | -0.0145 |
| ATGACTGC | -0.0609 |
| TCCTCCAA | -0.0605 |
| CTGAACTC | -0.105 |
| GCGTGAAA | 0.0243 |
| ACTCCAAT | 0.0629 |
| ATGACTTG | -0.145 |
| ACTATGTA | 0.0693 |

| Sequence | PBM E-score |
| --- | --- |
| GCCCACGA | -0.12 |
| GCGTGCAA | -0.129 |
| CAGGAAGC | 0.00897 |
| AGATGTCC | 0.0719 |
| AAGCTGGG | -0.031 |
| AGTGCCAC | -0.299 |
| AAAACCGG | 0.178 |
| GAGTAAAA | 0.176 |
| ACTAAATG | 0.0633 |
| TGGGACCA | -0.208 |
| AGAGCCAA | -0.134 |
| AAAAAACC | 0.0982 |
| GCTGGACA | -0.0562 |
| CTCCATAA | -0.0373 |
| CTAAGACC | -0.0691 |
| AAGTGCCG | -0.0901 |
| AGCTATAT | 0.192 |
| CGCTGAAA | -0.124 |
| CCCTTCCC | -0.182 |
